Paper PMC4336329 (PLoS ONE, 2015)
The campaign covered roughly 310,000 compounds. About 14,000 (4.5%) showed an effect of 50% or more. The effect is printed as a negative number. This is one part of the list.

target: human ether-à-go-go-related gene (hERG) potassium channel (human, UniProt Q12809); assay: primary screen, population patch clamp on CHO cells stably expressing hERG
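Also: peak tail current of the secondary pulse compared with the same well before compound.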

Chain of human ether-à-go-go-related gene (hERG) potassium channel (Q12809 whole entry, looked up): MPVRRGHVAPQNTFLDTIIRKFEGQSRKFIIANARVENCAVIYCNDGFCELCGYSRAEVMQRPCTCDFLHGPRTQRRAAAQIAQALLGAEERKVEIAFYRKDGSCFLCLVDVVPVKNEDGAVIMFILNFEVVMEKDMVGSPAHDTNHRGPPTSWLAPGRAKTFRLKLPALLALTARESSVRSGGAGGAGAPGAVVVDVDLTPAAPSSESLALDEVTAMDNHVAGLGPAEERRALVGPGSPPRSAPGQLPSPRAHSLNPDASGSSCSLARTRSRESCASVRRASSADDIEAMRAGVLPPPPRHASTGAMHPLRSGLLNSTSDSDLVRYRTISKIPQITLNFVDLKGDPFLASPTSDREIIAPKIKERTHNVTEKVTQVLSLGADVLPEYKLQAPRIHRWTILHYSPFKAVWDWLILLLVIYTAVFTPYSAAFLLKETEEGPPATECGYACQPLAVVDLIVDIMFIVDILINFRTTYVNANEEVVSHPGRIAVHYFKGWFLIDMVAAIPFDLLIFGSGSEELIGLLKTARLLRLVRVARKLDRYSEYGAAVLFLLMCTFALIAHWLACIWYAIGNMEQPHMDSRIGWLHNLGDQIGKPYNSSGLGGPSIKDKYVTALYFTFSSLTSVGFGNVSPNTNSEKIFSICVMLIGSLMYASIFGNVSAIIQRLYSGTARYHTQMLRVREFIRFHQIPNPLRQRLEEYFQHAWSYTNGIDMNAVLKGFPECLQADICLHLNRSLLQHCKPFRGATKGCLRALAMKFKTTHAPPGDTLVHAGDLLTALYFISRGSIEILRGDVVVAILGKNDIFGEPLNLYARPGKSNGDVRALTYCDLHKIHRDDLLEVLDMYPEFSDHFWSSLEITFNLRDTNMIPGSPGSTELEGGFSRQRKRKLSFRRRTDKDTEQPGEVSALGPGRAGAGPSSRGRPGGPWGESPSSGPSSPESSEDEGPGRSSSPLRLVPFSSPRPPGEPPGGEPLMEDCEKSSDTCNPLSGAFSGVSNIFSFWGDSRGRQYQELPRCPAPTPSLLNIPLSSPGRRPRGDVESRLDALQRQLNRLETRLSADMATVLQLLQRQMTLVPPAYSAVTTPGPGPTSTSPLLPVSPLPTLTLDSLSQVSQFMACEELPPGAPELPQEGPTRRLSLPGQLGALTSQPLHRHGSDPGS

Point of comparison: `COc1ccccc1N1CCN(C(=O)c2cc(-c3ccc(C)cc3)on2)CC1`, “hERG current change (%, negative = inhibition) at 10uM” value -4.06%. Against it:
- CC1CCCCC1NC(=O)CSc1nnc(-c2ccco2)n1C (stereo not shown) — higher, -1.47%
- Cc1cccc2cc(COC(=O)C(C)(C)C)c(=O)[nH]c12 — higher, 12.8%
- O=C(CCc1ccccc1O)N/N=C/c1ccc(Sc2cccc3cccnc23)o1 — higher, 21.8%
- CCN(c1ccccc1)S(=O)(=O)c1ccc2ccccc2c1 — higher, -3.29%
- COc1ccc(CC(=O)c2ccc(OC)c(OC)c2)cc1 — higher, 5.48%
- COc1ccc(OC)c(CN2CCN(C(=O)CNC(=O)c3ccc(C(C)(C)C)cc3)CC2)c1 — lower, -53.9%
- CCCCn1cc(C(C)(C)C)c(C#N)c1NC(C)=O — higher, 17.4%
- O=C(NCC1(N2CCCCC2)CCCCC1)C1CC(=O)N(c2ccc3c(c2)OCCO3)C1 (stereo not shown) — higher, 20.6%
- COC(=O)C1=C(c2ccc(C(C)=O)cc2)C[C@@H]2CC[C@H]1N2C(=O)N1CCOCC1 — higher, 11.8%
- COc1ccc(-c2[nH]ncc2CN2CCN(Cc3cccs3)CC2)c(F)c1 — lower, -31.9%
- COc1cccc(NC(=S)Nc2cccc3ccccc23)c1 — higher, 17.9%
- Cc1cc(C(=O)CCC(=O)Nc2ncccc2O)c(C)s1 — lower, -17.5%
- CC(C)(C)NC(=O)c1cccc(NC(=O)c2ccco2)c1 — higher, 4.04%
- CN(C)c1ccc(/C=C/C=C2/SC(=S)N(c3ccccc3)C2=O)cc1 — higher, 9.2%
- O=C(O)c1cccc(NC(=O)c2ccc(Cl)c(S(=O)(=O)N3CCCCCC3)c2)c1 — higher, 21.8%
- CCn1c(C)nc2cc(-c3nnc(-c4c(-c5ccccc5)noc4C)o3)ccc21 — lower, -25.2%
- CC1(C)Cc2c(sc3nc(SCC(=O)N4CCOCC4)nc(N)c23)CO1 — lower, -6.36%
- O=C(O)c1ccc(NS(=O)(=O)c2cccc(C(=O)Nc3ccc(Br)cc3)c2)cc1 — higher, 10.4%
- O=C(Cn1c(CCCO)nc2ccccc21)Nc1ccccc1-c1ccccc1 — lower, -7.12%
- CCN1C(=O)/C(=C/c2cn(C)nc2C)SC1=S — lower, -5.39%
- CN1C[C@@H]2C(c3ccc(C(F)(F)F)cc3)C3(c4ccccc4)CC2(C3)[C@H]1c1ccccc1 (stereo partly shown) — higher, -1.14%
- CC(=O)Nc1ccc(NC(=O)C2CCCN(S(=O)(=O)c3ccc(Cl)cc3)C2)cc1 (stereo not shown) — higher, 22.1%
- Cc1cccc(Nc2ncccc2C(=O)NCc2cccs2)c1C — lower, -9.66%
- CC(NC(=O)C1CCC1)c1ccccc1 (stereo not shown) — higher, 14.9%
- COC(=O)C(CC(=O)c1ccc(C)cc1)n1nc(C)cc1C (stereo not shown) — higher, 4.37%
- CCOC(=O)[C@H]1[C@H]2COc3ccc(C)cc3[C@@H]2N2C(=O)c3cc(Cl)ccc3NC(=O)[C@@]12C — higher, 12.1%
- O=C(CN1C(=O)C2CC=CCC2C1=O)Nc1nc2ccccc2s1 (stereo not shown) — higher, -0.314%
- O=C(COC(=O)c1nc(Cl)ccc1Cl)Nc1ccc(Cl)cn1 — lower, -16.1%
- Cc1ccc(C(=O)Nc2nc3c(s2)CCCC3)o1 — lower, -7.5%
- O=C(Nc1ccc2c(c1)OCO2)C1CC1(Cl)Cl (stereo not shown) — higher, 3.77%
- CCCC(=O)Nc1cccc(-c2cn3cccnc3n2)c1 — lower, -9.53%
- Cc1ccc(O)c(C2=NCCNC(C(F)(F)C(F)F)=C2)c1 — lower, -34.1%
- CNS(=O)(=O)c1cccc(C(=O)OCC(=O)/C=C2/N(C)c3ccccc3C2(C)C)c1 — lower, -22.4%
- O=C(Nc1ccccc1C(=O)Nc1ccc2c(c1)OCO2)c1cccs1 — higher, 3.6%
- CN(C)C(=O)NC1C=CS(=O)(=O)C1 (stereo not shown) — higher, 3.93%
- Cc1cccc(NC(=S)N(CCCN2CCOCC2)C(C)c2cc3ccccc3o2)c1C (stereo not shown) — lower, -20.9%
- COC(=O)c1ccccc1NC(=O)CN1C(=O)C2CCCN2c2ncc(Cl)cc21 (stereo not shown) — lower, -6.15%
- Cc1cc(C)c2sc(N(CCCN(C)C)C(=O)c3ccc(S(=O)(=O)N(C)Cc4ccccc4)cc3)nc2c1.Cl — lower, -13.5%
- COc1cc(/C=C/C(=O)OCC(=O)NC(=O)NC(C)(C)C)ccc1OCC#N — higher, 3.78%
- Cc1ccc(SCC(=O)NCCC2=CCCCC2)cc1 — lower, -5.25%
- O=[N+]([O-])c1cccc(-c2nnc(SCc3cccnc3)o2)c1 — lower, -45.8%
- COc1ccc(C2=CC(=O)C[C@H](c3ccc(F)cc3)C2)cc1F — lower, -16.5%
- Cc1c(-c2ccc(Br)cc2)[n+](=O)c2c(n1[O-])CCCCC2 — higher, 8.14%
- O=C(COc1cc(Cl)c(Cl)cc1Cl)NC(=O)NC1CCCC1 — higher, 7.64%
- Cc1ccc(S(=O)(=O)N2CCN(C(=O)Cn3nc(C)c([N+](=O)[O-])c3C)CC2)c(C)c1 — lower, -11.3%
- O=C1N/C(=C/c2cccs2)C(=O)N1Cc1ccc(F)cc1 — higher, 15.4%
- CCC(C)NCCOc1cccc(Br)c1.O=C(O)C(=O)O (stereo not shown) — higher, -0.0286%
- O=C1/C(=C\c2ccc(O)cc2)SC(=S)N1c1cccnc1 — higher, 21.2%
- CCOC(=O)c1c(S(=O)(=O)NCC(=O)N2CCN(c3ccccc3)CC2)c(C)n(C)c1C — lower, -24.8%
- COc1ccccc1C(=O)C1CCCN(C(=O)c2cccc(-n3cccn3)c2)C1 (stereo not shown) — higher, -3.52%
- O=C(CNC(=O)c1ccc(Br)cc1)NCCc1nc2ccccc2[nH]1 — lower, -6.76%
- Cc1cc(C)cc(NC(=S)NCc2ccc(F)cc2)c1 — higher, 9.4%
- CCc1cccc(CC)c1NC(=S)NCCc1c(C)[nH]c2ccccc12 — higher, -2.64%
- COc1cccc(CNC(=O)c2cc(=O)[nH]c3ccc(S(=O)(=O)N4CCOCC4)cc23)c1 — higher, 9.73%
